Reference: patent US10364280B2, “Polypeptide” (AFFIBODY AB, priority 2015, dated 2019)

How the values were obtained:
Type in all cases: binding
[1] = target: T1, hB7-H4 (Homo sapiens, UniProt Q7Z7D3); test: ELISA specificity test against biotinylated control protein hB7-H4; conditions: control protein added at 8 nM
T1 construct: purchased R&D Systems 6576-B7-50
T1 sequence (Q7Z7D3 25-282): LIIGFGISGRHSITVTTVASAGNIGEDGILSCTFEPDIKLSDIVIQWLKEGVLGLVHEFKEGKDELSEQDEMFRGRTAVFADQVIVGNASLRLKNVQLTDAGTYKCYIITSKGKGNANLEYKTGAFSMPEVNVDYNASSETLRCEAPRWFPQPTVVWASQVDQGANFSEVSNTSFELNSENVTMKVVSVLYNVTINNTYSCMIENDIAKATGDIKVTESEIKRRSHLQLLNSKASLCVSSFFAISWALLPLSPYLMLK
Description: (§1) The binding of Z variants to hPD-L1 was analyzed in ELISA assays. Half-area 96-well ELISA plates (Costar, cat. no. 3690) were coated at 4° C. overnight with 2 μg/ml of an anti-ABD goat antibody (produced in-house) diluted in coating buffer (50 mM sodium carbonate, pH 9.6; Sigma, cat. no. C3041). The antibody solution was poured off and the wells were washed in water and blocked with 100 μl of PBSC (PBS supplemented with 0.5% casein; Sigma, cat. no. C8654) for 1 to 3 h at RT. The blocking solution was discarded and 50 μl periplasmic solutions, diluted 1:1 with PBST 0.05%, were added to the wells and incubated for 1.5 to 2.5 h at RT under slow agitation. As a blank control, PBST 0.05% was added instead of a periplasmic sample. The supematants were poured off and the wells were washed 4 times with PBST 0.05%. Then, 50 μl of biotinylated hPD-L1 at a concentration of 0.32 nM in PBSC was added to each well. The plates were incubated for 1.0 h at RT followed by washes as described above. Streptavidin conjugated HRP (Thermo Scientific, cat no. N100) diluted 1:30,000 in PBSC, was added to the wells and the plates were incubated for approximately 1 h. After washing as described above, 50 μl ImmunoPure TMB substrate (Thermo Scientific, cat no. 34021) was added to the wells and the plates were treated according to the manufacturers recommendations. The absorbance at 450 nm was measured using a multi-well plate reader, Victor^3 (Perkin Elmer).
(§2) A selection of PD-L1 binding Z variants was subjected to an analysis of the response against a dilution series of biotinylated hPD-L1 following the procedure described above. The Z variants, Z13166 (SEQ ID NO:1), Z13359 (SEQ ID NO:3) and Z13398 (SEQ ID NO:4) were diluted 1:1 in PBST 0.05% and biotinylated hPD-L1 was added at a concentration of 40 nM and diluted stepwise 1:4 down to 32 μM. […] Data were analyzed using GraphPad Prism 5 and non-linear regression and EC50 values (the half maximal effective concentration) were calculated.

[2] = target: T2, hB7-H3 (Homo sapiens, UniProt Q5ZPR3); test: ELISA specificity test against biotinylated control protein hB7-H3; conditions: control protein added at 8 nM
T2 construct: purchased R&D Systems 1027-B3-100
T2 sequence (Q5ZPR3 29-245 isoform Q5ZPR3-2 limits assumed): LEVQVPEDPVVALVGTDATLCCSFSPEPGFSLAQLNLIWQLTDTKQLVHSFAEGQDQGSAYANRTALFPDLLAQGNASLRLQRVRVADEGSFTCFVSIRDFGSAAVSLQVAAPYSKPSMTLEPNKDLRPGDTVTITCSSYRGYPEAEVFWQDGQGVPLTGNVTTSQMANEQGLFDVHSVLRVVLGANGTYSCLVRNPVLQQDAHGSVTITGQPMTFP
Description: as §1, §2

[3] = target: T3, hPD-L2 (Homo sapiens, UniProt Q9BQ51); test: ELISA specificity test against biotinylated control protein hPD-L2; conditions: control protein added at 8 nM
T3 construct: purchased R&D Systems 1224-PL-100
T3 sequence (Q9BQ51 20-273): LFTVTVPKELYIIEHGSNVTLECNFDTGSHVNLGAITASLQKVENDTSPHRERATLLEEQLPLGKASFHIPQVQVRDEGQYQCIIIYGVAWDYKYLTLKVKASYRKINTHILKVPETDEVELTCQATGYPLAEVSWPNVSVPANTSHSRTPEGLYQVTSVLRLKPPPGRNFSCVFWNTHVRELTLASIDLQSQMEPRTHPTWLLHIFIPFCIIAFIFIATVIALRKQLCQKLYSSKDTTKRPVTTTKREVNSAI
Description: as §1, §2

[4] = target: T4, hPD-L1 (Homo sapiens, UniProt Q9NZQ7); test: ELISA titration (EC50 analysis) against biotinylated hPD-L1; conditions: FIG. 2; periplasm samples
T4 construct: purchased R&D Systems 156-B7-100
Description: as §1, §2

T4 sequence (Q9NZQ7 19-239 limits assumed): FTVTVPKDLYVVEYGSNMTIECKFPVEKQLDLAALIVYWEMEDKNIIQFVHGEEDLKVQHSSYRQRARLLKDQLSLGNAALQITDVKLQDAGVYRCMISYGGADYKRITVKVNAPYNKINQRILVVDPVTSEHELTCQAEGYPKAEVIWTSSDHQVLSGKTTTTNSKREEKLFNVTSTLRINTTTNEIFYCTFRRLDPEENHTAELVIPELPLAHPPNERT

| response against hB7-H4 (FIG. 2 legend prints hB7-H7) in ELISA [1] | response against hB7-H3 in ELISA [2] | response against hPD-L2 in ELISA [3] | binding to hPD-L1 in ELISA [4] | Substance |
| --- | --- | --- | --- | --- |
| no response | no response | no response | bind | Z13166: PD-L1 binding Z variant, 58 amino acid residues, SEQ ID NO:1; tested as ABD fusion or His6-tagged (VDAKYAKERTVAVWEIVQLPNLTAWQKGAFINKLHDDPSQSSELLSEAKKLNDSQAPK; Engineered PD-L1 binding polypeptide) |
| no response | no response | no response | bind | Z13359: PD-L1 binding Z variant, 58 amino acid residues, SEQ ID NO:3; tested as ABD fusion or His6-tagged (VDAKYAKERTIAVWEIMDLPNLTSWQRGAFIDKLHDDPSQSSELLSEAKKLNDSQAPK; Engineered PD-L1 binding polypeptide) |
| no response | no response | no response | bind | Z13398: PD-L1 binding Z variant, 58 amino acid residues, SEQ ID NO:4; tested as ABD fusion or His6-tagged (VDAKYAKERTMATWEIVQLPNLTARQKGAFIWKLHDDPSQSSELLSEAKKLNDSQAPK; Engineered PD-L1 binding polypeptide) |
